Test results from PubChem BioAssay AID2675 (National Center for Advancing Translational Sciences (NCATS), 2010).
The whole screen tested about 280,000 compounds, of which about 100 (0.036%) were called active. The shares of active, inactive and inconclusive entries below differ from those in the screen. Calls come from the whole dose curve; as a rule, active = well fitted inhibition curve with a large enough effect in the signal ratio, with a control signal flat (not every such curve was filed as active); inconclusive = small, poorly fitted or top-dose-only effect, or effect the other way, or a change in a side signal; inactive = no such curve, though single readings can be large or run the other way; the % refers to the signal ratio. Potencies beside an inconclusive call are fits to weak or partial responses and may not hold up. A note “side channel” means that the fit belongs to a control or component signal, not to the main read-out.

biological target: Muscleblind-like protein 1 (Homo sapiens) (UniProt Q9NR56); test: qHTS Assay for Inhibitors of MBNL1-poly(CUG) RNA binding; conditions: TR-FRET MBNL1-His/biotin-(CUG)12 binding, 665/545 ratio; activity change, negative = inhibition: at 57.5 µM (top of the series)
Procedure, shortened: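 Ratiometric TR-FRET (665 over 545 nm, excitation 340 nm) tracks disruption of MBNL1-His/biotin-(CUG)12 complex after 60 min at room temperature, with compounds at 92 nM to 58 uM final.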
% is set by controls: 0 for no effect and ±100 for the full control effect; potency is the fitted concentration of half-maximal effect; tags give direction and shape of the fitted curve or compound fluorescence and quenching.

Chain of UniProt Q9NR56 (Q9NR56 whole entry, looked up): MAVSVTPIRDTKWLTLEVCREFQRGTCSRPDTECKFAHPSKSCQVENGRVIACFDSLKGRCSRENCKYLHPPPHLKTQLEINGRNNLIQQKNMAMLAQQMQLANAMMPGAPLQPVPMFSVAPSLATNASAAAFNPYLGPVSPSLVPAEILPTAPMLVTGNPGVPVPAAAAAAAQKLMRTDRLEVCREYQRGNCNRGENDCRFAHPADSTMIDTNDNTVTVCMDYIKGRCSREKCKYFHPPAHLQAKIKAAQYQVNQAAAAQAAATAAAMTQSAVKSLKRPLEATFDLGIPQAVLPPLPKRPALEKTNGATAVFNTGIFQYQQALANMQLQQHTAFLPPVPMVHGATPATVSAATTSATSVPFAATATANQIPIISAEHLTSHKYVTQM

Row | SMILES | Potency | activity change, negative = inhibition
1 | Cc1cc(C)c2c(-n3cccc3)nn(CC#N)c2n1 | inactive | –
2 | COc1cc2c(cc1OC)CN(c1ccc3ccccc3n1)CC2 | inconclusive: 11.2 µM [quencher, side channel, partial curve] | –
3 | COc1ccc(OC)c(CNC(=O)CCCc2cn(C)c3ccccc23)c1 | inconclusive: 126 µM [inhibitor, partial curve] | –
4 | COc1ccc(/C=N/NC(=O)c2cc[n+]([O-])cc2)cc1O | inconclusive: 31.6 µM [quencher, side channel, single point] | –
5 | O=C(CSc1nc2ccc([N+](=O)[O-])cc2[nH]1)NC1CCCCC1 | inconclusive: 22.4 µM [quencher, side channel, partial curve] | –
6 | CC(=O)Nc1ccc(S(=O)(=O)NCCC(=O)OCc2ccc([N+](=O)[O-])cc2)cc1 | inconclusive: 15.8 µM [quencher, partial curve] | –
7 | O=C(O)/C=C/C(=O)Nc1ccc2c(c1)C(=O)c1ccccc1C2=O | inconclusive: 11.2 µM [quencher, side channel, partial curve] | –
8 | O=C1/C(=C\c2ccco2)SC(=S)N1C1CCS(=O)(=O)C1 (configuration not stated) | inconclusive: 4.47 µM [quencher, side channel, partial curve] | –
9 | Cc1cccc(N2CCN(C(=O)CCC(=O)N3Cc4ccccc4Oc4ncccc43)CC2)c1C | inactive | –
10 | CCN(CC(=O)Nc1ccc(NC(C)=O)cc1)C(=O)/C=C/c1ccc(S(=O)(=O)N2CCCCCC2)cc1 | inconclusive: 20 µM [quencher, side channel, single point] | –
11 | O=C(CSc1nc2ccccc2o1)Nc1nncs1 | inactive | –
12 | O=C(NCCCN1CCOCC1)c1cc2c(s1)-c1ccccc1OC2 | inconclusive: 22.4 µM [quencher, side channel, partial curve] | –
13 | COc1cc([N+](=O)[O-])ccc1NC(=O)Nc1cccnc1 | inconclusive: 3.16 µM [quencher, side channel, full curve] | –
14 | COc1ccccc1N1C(=O)c2ccc(C(=O)Nc3ccc(C(=O)O)cc3)cc2C1=O | inconclusive: 10 µM [quencher, side channel, partial curve] | –
15 | CC1(C)COC(/C=C/c2ccc([N+](=O)[O-])cc2)=N1 | inconclusive: 39.8 µM [quencher, side channel, single point] | –
16 | CCCN1C(=O)C2(C(C(=O)c3ccc(C)o3)=C(O)C(=O)N2CCCN2CCOCC2)c2ccccc21 (configuration not stated) | inactive | –
17 | CCOC(=O)c1ccc(N2C(=O)c3cccc4c(C(=O)O)ccc(c34)C2=O)cc1 | inconclusive: 10 µM [quencher, partial curve] | –
18 | CCN(CC)c1ccc(C(=O)N2CCN(Cc3ccccc3)CC2)cc1 | inactive | –
19 | COc1cc2[nH]c(=O)c(C(=O)NCc3ccc(F)cc3)c(O)c2cc1OC | inactive | –
20 | COC(=O)c1sccc1NC(=S)NCc1ccc(Cl)cc1 | inactive | –
21 | COc1ccc2oc(C)c(C(=O)c3ccc([N+](=O)[O-])cc3)c2c1 | inconclusive: 12.6 µM [quencher, side channel, partial curve] | –

Row | SMILES | Potency | activity change, negative = inhibition
22 | CC1=C([N+](=O)[O-])C(c2ccccc2)NC(=O)N1 (configuration not stated) | inconclusive: 28.2 µM [quencher, side channel, single point] | –
23 | CC(C)(C)N(Cc1ccccc1)C(=O)COC(=O)c1cccc([N+](=O)[O-])c1 | inconclusive: 15.8 µM [quencher, single point] | –
24 | C/C(=N\Nc1nccnc1Cl)c1ccc(Br)cc1 | inconclusive: 15.8 µM [quencher, side channel, partial curve] | –
25 | CC1CCCCN1C(=O)CCS(=O)(=O)c1cccc2nonc12 (configuration not stated) | inconclusive: 15.8 µM [quencher, side channel, partial curve] | –
26 | O=C(NCc1ccccc1)c1ccc2c(c1)C(=O)N(CC1CCCO1)C2=O (configuration not stated) | inconclusive: 12.6 µM [quencher, side channel, partial curve] | –
27 | COc1cc(/C=N/Nc2nc3c(c(=O)n(C)c(=O)n3C)n2Cc2ccccc2)ccc1OC(=O)c1ccco1 | inactive | –
28 | COc1ccc(-c2nc3ccccc3c(=O)n2CCOc2ccc(C)cc2C)cc1 | inconclusive: 0.1 µM [fluorescent, side channel, full curve, poor fit] | –
29 | c1ccc(-c2nccc(-c3ccco3)n2)nc1 | inactive | –
30 | Cc1ccc(CCNC(=O)c2cc(-c3ccncc3)nc3ccccc23)cc1 | inactive | –
31 | O=C(Cc1cccs1)Nc1nc2ccccc2s1 | inactive | –
32 | COc1ccccc1/C=C/C(=O)Nc1cccc(C(C)=O)c1 | inconclusive: 22.4 µM [quencher, side channel, single point] | –
33 | Cc1nnc2ccc(-c3cccc(NC(=O)Cc4cccs4)c3)nn12 | inconclusive: 12.6 µM [quencher, side channel, partial curve] | –
34 | CCc1[nH]nc(C(=O)N2CCCC(C(=O)c3cccc(OC(C)C)c3)C2)c1C (configuration not stated) | inconclusive: 20 µM [quencher, side channel, partial curve] | –
35 | COc1cccc(C(=O)/C=C/c2ccc(N3CCCCC3)c([N+](=O)[O-])c2)c1 | inconclusive: 20 µM [quencher, side channel, single point] | –
36 | CC(C)c1nc2cc3ccccc3cc2[nH]1 | inconclusive: 44.7 µM [quencher, side channel, partial curve, poor fit] | –
37 | CSc1ccc(CN2CCC(n3nccc3NC(=O)c3ccccc3C)CC2)cc1 | inactive | –
38 | CC(=O)Nc1ccc(Nc2c([N+](=O)[O-])cc(S(C)(=O)=O)cc2[N+](=O)[O-])cc1 | inconclusive: 3.16 µM [quencher, side channel, full curve] | –
39 | COc1cc(/C=N/NC(=O)C2CCN(CC(O)COCc3ccccc3)CC2)cc(OC)c1OC (configuration not stated) | inactive | –
40 | CSc1ncccc1C(=O)OCC(=O)Nc1ccc(S(=O)(=O)N2CCCC2)cc1 | – | inconclusive: 4.12% [phenotype inactive]
41 | COc1ccc(-c2cc3nc(-c4ccccc4)cc(N4CCC5(CC4)OCCO5)n3n2)cc1 | inconclusive: 39.8 µM [fluorescent, side channel, single point] | –
42 | N=c1c(C(=O)NC2CCCC2)cc2c(=O)n3ccccc3nc2n1CC1CCCO1 (configuration not stated) | inconclusive: 4.47 µM [quencher, side channel, full curve] | –

Row | SMILES | Potency | activity change, negative = inhibition
43 | O=C(CSc1ccccc1C(=O)O)NCc1ccccc1 | inactive | –
44 | O=C(OCc1ccccc1C(F)(F)F)c1cc([N+](=O)[O-])ccc1N1CCOCC1 | inconclusive: 31.6 µM [quencher, side channel, partial curve] | –
45 | CNC(=O)c1cc2cc(OC)ccc2oc1=N | inconclusive: 11.2 µM [quencher, side channel, partial curve] | –
46 | O=C(CCCN1C(=O)/C(=C\c2ccccc2)SC1=S)Nc1cccc(C(=O)O)c1 | inconclusive: 25.1 µM [quencher, side channel, single point] | –
47 | CC(C)Oc1ccc(/C(O)=C2/C(=O)C(=O)N(CCN3CCNCC3)C2c2cccc([N+](=O)[O-])c2)cc1 (configuration not stated) | inconclusive: 15.8 µM [quencher, side channel, partial curve] | –
48 | COc1ccc(-n2c(C)nnc2SCC(=O)N2CCOCC2)cc1 | inactive | –
49 | CCn1cc(C(=O)O)c(=O)c2cnc(N3CCN(C(=S)NC(=O)c4ccccc4)CC3)nc21 | inactive | –
50 | COC(=O)CCSc1cc(NCCOC(C)=O)c([N+](=O)[O-])c2nonc12 | inconclusive: 7.08 µM [quencher, side channel, partial curve] | –
51 | O=C(N/N=C/c1cccs1)c1ccc2nc[nH]c2c1 | inconclusive: 7.94 µM [quencher, side channel, partial curve] | –
52 | O=C1N=c2ccccc2=C1c1sc(=S)n(NC(=O)c2cccc(O)c2)c1O | inactive | –
53 | Cc1c(F)cccc1NC(=O)CCC(=O)O | inactive | –
54 | CC(=O)Oc1cccc(N2C(=O)CC(Nc3ccc(N4CCOCC4)cc3)C2=O)c1 (configuration not stated) | inconclusive: 22.4 µM [quencher, side channel, partial curve] | –
55 | O=C(/C=C\c1ccccc1)NCC(=O)N/N=C/c1ccc(O)cc1O | inconclusive: 25.1 µM [quencher, side channel, partial curve] | –
56 | COc1ccccc1CNC(=O)CSc1ccsc1[N+](=O)[O-] | inconclusive: 12.6 µM [quencher, side channel, partial curve] | –
57 | Cc1ccccc1C(=O)NC(=S)Nc1sc2c(c1C#N)CCCC2 | inconclusive: 5.01 µM [quencher, side channel, full curve] | –
58 | O=C(COC(=O)CCCc1nc2ccccc2s1)Nc1ncc(Cl)cc1Cl | inconclusive: 0.126 µM [fluorescent, side channel, partial curve, poor fit] | –
59 | O=C(NN=C1CCCC1)c1ccc([N+](=O)[O-])cc1 | inconclusive: 15.8 µM [quencher, side channel, partial curve] | –
60 | Cc1ccc(S(=O)(=O)Nc2nc(C)c(C(=O)Nc3ccccc3)s2)cc1 | inactive | –
61 | Cc1ccc(N2C(=O)c3ccc(C(=O)O)cc3C2=O)cc1C | inconclusive: 11.2 µM [quencher, side channel, partial curve] | –
62 | CCOn1c(=O)c(-c2ccc(F)cc2)[n+]([O-])c2ccccc21 | inconclusive: 3.55 µM [quencher, side channel, full curve, poor fit] | –
